Reference: PMC6919601, “Identification of Plasmodium dipeptidyl aminopeptidase allosteric inhibitors by high throughput screening” (PLoS ONE, 2019)
Screen size: about 110,000 compounds; about 230 (0.21%) showed an effect of 50% or more. Some of the results follow.

The compounds below were run against DPAP1 (Plasmodium falciparum, UniProt Q8IIJ9) (assay: primary screen, percent inhibition; read by cleavage of a fluorogenic dipeptide substrate; higher = more effect of the substance).
Set-up: species or system P. falciparum D10 trophozoite lysates; single well
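Note: 30 min substrate incubation versus DMSO and 10 µM JCP410 controls.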

Chain of DPAP1 (Q8IIJ9 whole entry, looked up): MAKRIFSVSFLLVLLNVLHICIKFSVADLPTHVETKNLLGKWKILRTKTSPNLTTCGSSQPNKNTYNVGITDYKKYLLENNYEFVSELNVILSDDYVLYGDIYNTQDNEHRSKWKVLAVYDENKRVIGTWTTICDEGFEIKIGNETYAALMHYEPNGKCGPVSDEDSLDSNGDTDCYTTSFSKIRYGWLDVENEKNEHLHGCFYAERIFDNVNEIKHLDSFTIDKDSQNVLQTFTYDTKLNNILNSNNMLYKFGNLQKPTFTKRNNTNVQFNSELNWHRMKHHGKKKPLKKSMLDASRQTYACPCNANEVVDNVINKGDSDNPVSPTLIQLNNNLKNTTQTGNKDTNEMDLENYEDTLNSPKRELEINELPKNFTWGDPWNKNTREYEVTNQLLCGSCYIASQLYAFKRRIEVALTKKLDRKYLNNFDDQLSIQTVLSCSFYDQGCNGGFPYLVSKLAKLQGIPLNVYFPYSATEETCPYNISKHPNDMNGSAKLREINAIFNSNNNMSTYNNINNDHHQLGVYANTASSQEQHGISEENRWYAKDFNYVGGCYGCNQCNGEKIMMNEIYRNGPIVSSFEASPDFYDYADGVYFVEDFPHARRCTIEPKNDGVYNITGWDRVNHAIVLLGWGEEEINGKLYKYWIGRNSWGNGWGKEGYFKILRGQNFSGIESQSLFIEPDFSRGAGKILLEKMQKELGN

| SMILES | % Inhibition @ 10 uM [%] |
| --- | --- |
| Cc1ccc(Cl)cc1-n1ncc2c(N3CCCC3)ncnc21 | 8.79 |
| CCCCOc1ccc(C(=O)NC(Cc2ccccc2)C(=O)NC(CCSC)C(=O)O)cc1 (stereo not shown) | 1.76 |
| Cc1c(C(=O)N2CCCCC2)sc(NC(=O)C(C(F)(F)F)C(F)(F)F)c1C#N | 3.05 |
| O=C1C2C3C=CC(C2C(=O)N1Cc1ccc(F)cc1)C1C(=O)N(Cc2ccc(F)cc2)C(=O)C31 (stereo not shown) | -3.19 |
| COc1ccc(-c2csc(-n3nc(C)c(C(c4ccccc4)C(C#N)C(N)=O)c3O)n2)cc1 (stereo not shown) | -8.63 |
| CCOc1ccccc1N1CCN(Cc2cccc(C(F)(F)F)c2)CC1 | 3.16 |
| CC1CCN(CCCNC(=O)c2cc3c(Cl)nc4ccccc4c3s2)CC1 | 10.2 |
| CCOc1ccc(NC(=O)c2ccc(-c3ccccc3)cc2)cc1 | -1.6 |
| O=C(c1ccc(Cl)c(Cl)c1)N1CCOCC1 | 0.177 |
| COc1ccc2ccccc2c1/C=C/C(=O)c1ccncc1 | 4.57 |
| COc1ccc(C2CC(=O)N3CN(CCCc4ccccc4)CSC3=C2C#N)cc1OC (stereo not shown) | 30.5 |
| C=Cc1ccc(Cn2c(C)c(CNC3CCCCC3)c(C(=O)O)c2C)cc1 | -0.23 |
| OCCCNc1ncnc2sc3c(c12)CCCC3 | 0.774 |
| CC(=O)c1c(C)oc2ccc(N(C(C)=O)S(=O)(=O)c3c(C)cc(C)cc3C)cc12 | 3.04 |
| COc1ccc(C2C3=C(O)CC(C)(C)CC3=Nc3nc(C(F)(F)F)nn32)cc1OC (stereo not shown) | -1.62 |
| CCN(CC)CCCNC(=O)Cn1nc(C)c2c(C)n(-c3ccccc3)nc2c1=O | 3.16 |
| Cc1c(CNCCc2ccccc2)c(C(=O)O)c(C)n1Cc1c(F)cccc1Cl | -0.23 |
| O=C(Cn1c(=O)sc2ccccc21)Nc1cccc(C(F)(F)F)c1 | 2.6 |
| NC(=O)c1c(NC(=O)c2cccs2)sc2c1CCCCC2 | 2.92 |
| Cc1ccn2c(NC(=O)c3ccccc3)c(-c3ccccc3)nc2c1 | 11.8 |
| CCc1c(O)n(C2CCCCC2)c(SCC(=O)N2CCCCC2)nc1=O | 1.9 |
| CC(C)(C)c1ccc(C(=O)O/N=C(\N)Cc2ccc(Cl)cc2)cc1 | 1.13 |
| COc1ccccc1/C=C(\NC(=O)c1ccc(C)cc1)C(=O)Nc1ccccc1OC | 2.36 |
| N#CC1(NC(=O)[C@H](Cc2cc(Cl)c(O)c(Cl)c2)NC(=O)c2ccc(-c3ccc(C(F)(F)F)cc3)cc2)CC1 | -4.72 |
| O=C(COc1ccc(Cl)cc1)Nc1cccc(NC(=O)COc2ccc(Cl)cc2)n1 | -4.63 |

| SMILES | % Inhibition @ 10 uM [%] |
| --- | --- |
| CN(Cc1ccccc1)c1oc(/C=C/c2cccs2)nc1C#N | -5.33 |
| CCCCNC(=O)C1CC(=O)N(CCc2ccc(C)cc2)C1 (stereo not shown) | -3.58 |
| CCOC(=O)c1c(NC(=O)OC)sc2c1CCCC2 | 6.89 |
| NC(=O)c1cc(S(=O)(=O)Nc2ccccc2Cl)ccc1O | -8.33 |
| Cc1ccccc1/N=C/C1=C(O)CC(c2ccccc2)CC1=O (stereo not shown) | -4.12 |
| O=C1c2oc3ccccc3c(=O)c2C(c2ccccc2F)N1c1ccccn1 (stereo not shown) | 3.25 |
| COc1ccc(CNC(=O)C(=O)NCCc2ccc(OC)c(OC)c2)cc1 | 6.54 |
| COc1ccc(C2=CC(c3ccccc3OC(F)F)n3nnnc3N2)cc1 (stereo not shown) | 1.73 |
| CC(=O)c1cccc(NC(=O)C2c3ccccc3Oc3ccccc32)c1 | -2.53 |
| CC(C)CC(=O)Nc1nnc(S(=O)(=O)N(C)Cc2ccccc2)s1 | -2.48 |
| CCN1C(=O)CC(C(=O)Nc2ccccc2F)S/C1=N\c1ccc(OC)cc1 (stereo not shown) | -1.42 |
| CCS(=O)(=O)C1=NN2C(=N)/C(=C\c3ccc(OCc4ccccc4)c(OC)c3)C(=O)N=C2S1 | 5.1 |
| CCOC(=O)N1CCN(c2c(NCCCN3CCN(C4CCCCC4)CC3)c(=O)c2=O)CC1 | -1.44 |
| O=C1c2ccccc2C(=O)c2cc(S(=O)(=O)N(CCO)CCO)ccc21 | -1.18 |
| OC1(CC#CCN2CCCC2)c2ccccc2-c2ccccc21 | -6.29 |
| O=C(Nc1cccc(Cl)c1)c1ccccc1C(=O)Nc1cccc(Cl)c1 | -0.507 |
| CCN1C(=O)/C(=C/c2ccc(C)s2)S/C1=N/c1ccc(OC)cc1 | 2.53 |
| O[C@]12CCCC[C@@H]1[C@@H](c1ccc(Cl)cc1Cl)NCC2 | -0.0372 |
| CN(C)CCNC(=O)c1ccc2c(c1)sc1nc(-c3ccc(F)cc3)cn12 | 3.8 |
| CNC(=O)CCCc1nnc2n(CCC(C)C)c(=O)c3sccc3n12 | -3.88 |
| Cc1occc1C(=O)O/N=C(\N)c1ccccc1 | 2.17 |
| CCOC(=O)N1CCC(NC(=O)c2cc3cc4ccc(C)cc4nc3o2)CC1 | -1.54 |
| O=C1c2ccccc2C(=O)N1CNc1ccc(Cl)c(Cl)c1 | -1.17 |
| COc1ccccc1NC(=S)NC(=O)c1ccc(F)cc1 | 1.35 |
| CCN(CC)c1ccc(NC(=O)c2ccco2)cc1 | -4.03 |

| SMILES | % Inhibition @ 10 uM [%] |
| --- | --- |
| Cc1oc(-c2ccc(C(=O)N3CCOCC3)cc2)nc1COc1ccccc1 | -5.18 |
| O=C(O)c1ccccc1C(=O)Nc1ccccc1O | -0.0372 |
| O=C1CCC(NC(=O)OCc2ccccc2)(C(=O)O)O1 (stereo not shown) | 13.3 |
| CCCN(CCC)c1ccc(C=C2C(=O)NC(=S)NC2=O)cc1 | 12.1 |
| CCN(CC)c1ccc(Nc2snc3c2c(=O)n(C)c(=O)n3C)cc1 | 1.35 |
| CCCNC(=O)C1CCCN(c2ncnc3onc(C)c23)C1 (stereo not shown) | 2.01 |
| CCCCCCSc1nnc2nc(C)cc(C)n12 | 2.31 |
| CCOCCCNC(=O)NC(C)c1c(-n2cccc2)sc2c1CCCC2 (stereo not shown) | -2.88 |
| COC(=O)c1cc2occc2[nH]1 | -0.406 |
| O=C(NCCOc1ccccc1)c1ccccc1NC(=O)c1ccccc1C(F)(F)F | -2.09 |
| CCOc1ccccc1CN1CCN(c2ccccc2F)CC1 | 5.37 |
| Cc1ccc(-c2c(C(=O)N3CCCCC3C)oc(=O)c3ccccc23)cc1 (stereo not shown) | -1.54 |
| Cc1ccc(S(=O)Cc2nc(-c3ccc(C(=O)NCCc4ccccc4)cc3)oc2C)cc1 (stereo not shown) | -6.5 |
| COc1cccc(NC(=O)CN(c2c(C)cccc2C)S(C)(=O)=O)c1 | 0.214 |
| Cc1cc(Cl)ccc1OCC(=O)Nc1ccc(C(N)=O)cc1 | -4.66 |
| CCc1ccc(S(=O)(=O)c2nnn3c2nc(NCc2ccc(F)cc2)c2sccc23)cc1 | -7.14 |
| CCCNC(=O)c1nc2ncc(Br)cn2n1 | -2.36 |
| CCN1CCC(C#N)(NC(=O)[C@H](Cc2c(F)cc(OC)cc2F)NC(=O)c2ccc(-c3ccccc3Cl)nc2)CC1 | -1.7 |
| O=C1CC2CS(=O)(=O)CC2N1c1cccc(C(F)(F)F)c1 (stereo not shown) | -1.28 |
| CCOc1ccc(C2CC(c3ccc(OC(F)F)cc3)n3nnnc3N2)cc1Cl (stereo not shown) | 0.0842 |
| CCc1[nH]nc2c1C(c1ccncc1)C(C#N)=C(N)O2 (stereo not shown) | -5.96 |
| CC[C@H](C)[C@H](NC(=O)c1cccc(CN)c1)C(=O)N[C@@H](C)C(=O)CO | 2.22 |
| Cc1cc(O)nc(SCC(=O)NCCc2ccc(Cl)cc2)n1 | 0.9 |
| Cc1ccc(C2N3CC4(C)CN2CC(C)(C3)C4)cc1 (stereo not shown) | -0.289 |
| Cc1ccc2nc(N(CCCN(C)C)C(=O)c3cccs3)sc2c1 | 2.01 |

| SMILES | % Inhibition @ 10 uM [%] |
| --- | --- |
| Cc1cc(C#N)c(SCC(N)=O)nc1-c1ccc(F)cc1 | 1.57 |
| Cc1ccc(C(=O)Nc2ccccc2C)cc1 | 3 |
| CC(NC(=O)c1ccccc1C(=O)O)c1ccccc1 (stereo not shown) | 0.878 |
| CCCN(CCC)CCNC(=O)CS(=O)(=O)Cc1nc(-c2cccc(OC)c2)oc1C | -5.58 |
| Cc1cc2c(cc3c(=O)n(CC(=O)NCCN4CCOCC4)ncn32)s1 | 0.0198 |
| CCOc1ccc2nc(NC(=O)c3ccc(C)cc3)sc2c1 | -2.19 |
| CNS(=O)(=O)c1cn(CC(=O)NCCC(C)C)cc1S(=O)(=O)NC | -11.4 |
| Cc1nc(-n2cccc2)sc1C(=O)NCCc1ccccc1 | 5.73 |
| O=S(=O)(c1ccc(O)cc1)c1ccc(O)c(C23CC4CC(CC(C4)C2)C3)c1 | -0.0369 |
| O=C(NCc1ccc(F)cc1)C1CCN(c2cnccn2)CC1 | -2.71 |
| CC(CN(C)Cc1ccccc1)OC(=O)c1ccc2c(c1)OCCO2 (stereo not shown) | -5.51 |
| Cc1nn2c3ccccc3nc2n1C | 5.45 |
| CC1(C)C=C(N2CCNCC2)CC(C)(C)N1 | 0.162 |
| Cc1ccc2c(nc3s/c(=C/c4ccccc4F)c(=O)n32)c1C | 8.12 |
| CCC(=O)N1CCN(c2cc(N3CCC(C)CC3)c(F)cc2[N+](=O)[O-])CC1 | 1 |
| O=C1CN(CCc2ccccc2)CC(=O)N1CCc1ccccc1 | -6.83 |
| C#CCN1C(=O)S/C(=C/c2cc(C)n(-c3ccccn3)c2C)C1=O | -3.78 |
| C/C(=N/N=C(N)N)c1cccc(-n2cnnn2)c1 | 1.46 |
| C=CCn1c(SCC(=O)Nc2ccc(OC)cc2)nc2sc3c(c2c1=O)CCC3 | 5.97 |
| COc1cc(OC)c(OC)cc1/C=C1\SC(N2CCCC2)=NC1=O | 3.59 |
| COc1ccc(NOc2ccccc2)cc1 | -6.18 |
| C=CCOc1cccc(C2c3c(oc4ccccc4c3=O)C(=O)N2c2nc(C)c(C(C)=O)s2)c1 (stereo not shown) | 2.16 |
| CC1CN(C2=NC(=O)/C(=C\c3ccc(Br)cc3)S2)CC(C)O1 (stereo not shown) | 7.39 |
| COc1ccc(NC2=CC(c3cccc(OC)c3)N(c3ccc(OC)cc3)C2=O)cc1 (stereo not shown) | 1.96 |
| C=CCN1C(=O)NC(=O)/C(=C/c2ccc(OCC(=O)O)c(OCC)c2)C1=O | 1.58 |
